In ChEMBL document CHEMBL3632587, “Discovery of a Specific Inhibitor of Pyomelanin Synthesis in Legionella pneumophila” (J Med Chem, 2015):

Assays:
Legionella pneumophila [1] = assay: Inhibition of pyomelanin production in Legionella pneumophila 130b at 0.1 to 40 uM after 24 hrs
Legionella pneumophila [2] = assay: Inhibition of pyomelanin production in Legionella pneumophila 130b at 5 uM after 24 hrs
Legionella pneumophila [3] = assay: Inhibition of pyomelanin production in Legionella pneumophila 130b at <= 10 uM after 24 hrs

O=C(O)c1cc([N+](=O)[O-])cc2c1-c1ccc([N+](=O)[O-])cc1/C2=N/O
inhibition (Legionella pneumophila [1]): inactive

c1ccc2c(c1)CSc1sccc1C2n1ccnc1 (stereo not drawn)
inhibition (Legionella pneumophila [2]): Active | inhibition (Legionella pneumophila [3]): Active

Activity calls are given as the source filed them. No cut-off for these calls is given here.
